Source: patent US20230227576A1 (published 2023)

Tests used:
[1] = biological target: carcinoembryonic antigen (CEA) (Homo sapiens (Human), UniProt P06731); assay: cell-based or functional assay
[2] = biological target: Human folate receptor alpha (FolR) (human, UniProt P15328); assay: cell-based or functional assay

Row | Binder | IL-2 secretion (ELISA) [1] [ng/mL] | fold expansion over 2 rounds of stimulation [1] [fold] | viable T-cell counts over 18 days [1] [fold] | mean fold expansion over 21 days [2] [fold]
1 | MFE23.CD28 CoStAR (MFE23.scFv fused to full length human CD28) (CAR) QVKLQQSGAELVRSGTSVKLSCTASGFNIKDSYMHWLRQGPEQGLEWIGWIDPENGDTEYAPKFQGKATFTTDTSSNTAYLQLSSLTSEDTAVYYCNEGTPTGPYYFDYWGQGTTVTVSSGGGGSGGGGSGGGGSENVLTQSPAIMSASPGEKVTITCSASSSVSYMHWFQQKPGTSPKLWIYSTSNLASGVPARFSGSGSGTSYSLTISRMEAEDAATYYCQQRSSYPLTFGAGTKLELKR[about 150 residues not shown]FWVLVVVGGVLACYSLLVTVAFIIFWVRSKRSRLLHSDYMNMTPRRPGPTRKHYQPYAPPRDFAAYRS | 5 |  |  | 
2 | MFE23.CD28.CD40 CoStAR (CTP194; OSM_MFE23_spCD28_CD28_CD40) (CAR) QVKLQQSGAELVRSGTSVKLSCTASGFNIKDSYMHWLRQGPEQGLEWIGWIDPENGDTEYAPKFQGKATFTTDTSSNTAYLQLSSLTSEDTAVYYCNEGTPTGPYYFDYWGQGTTVTVSSGGGGSGGGGSGGGGSENVLTQSPAIMSASPGEKVTITCSASSSVSYMHWFQQKPGTSPKLWIYSTSNLASGVPARFSGSGSGTSYSLTISRMEAEDAATYYCQQRSSYPLTFGAGTKLELKRAAAGSGG[about 150 residues not shown]FWVLVVVGGVLACYSLLVTVAFIIFWVRSKRSRLLHSDYMNMTPRRPGPTRKHYQPYAPPRDFAAYRSKKVAKKPTNKAPHPKQEPQEINFPDDLPGSNTAAPVQETLHGCQPVTQEDGKESRISVQERQ | 29 | 10 | > 60 | 
3 | MOV19.CD28 CoStAR (CTP343) (CAR) QVQLQQSGAELVKPGASVKISCKASGYSFTGYFMNWVKQSHGKSLEWIGRIHPYDGDTFYNQNFKDKATLTVDKSSNTAHMELLSLTSEDFAVYYCTRYDGSRAMDYWGQGTTVTVSSGGGGSGGGGSGGGGSDIELTQSPASLAVSLGQRAIISCKASQSVSFAGTSLMHWYHQKPGQQPKLLIYRASNLEAGVPTRFSGSGSKTDFTLNIHPVEEEDAATYYCQQSREYPYTFGGGTKLEIKAAAGSGG[about 150 residues not shown]FWVLVVVGGVLACYSLLVTVAFIIFWVRSKRSRLLHSDYMNMTPRRPGPTRKHYQPYAPPRDFAAYRS |  |  |  | 187
4 | MOV19.CD28.CD40 CoStAR (CTP205; OSM_MOV19_spCD28_CD28_CD40) (CAR) QVQLQQSGAELVKPGASVKISCKASGYSFTGYFMNWVKQSHGKSLEWIGRIHPYDGDTFYNQNFKDKATLTVDKSSNTAHMELLSLTSEDFAVYYCTRYDGSRAMDYWGQGTTVTVSSGGGGSGGGGSGGGGSDIELTQSPASLAVSLGQRAIISCKASQSVSFAGTSLMHWYHQKPGQQPKLLIYRASNLEAGVPTRFSGSGSKTDFTLNIHPVEEEDAATYYCQQSREYPYTFGGGTKLEIKAAAGSGG[about 150 residues not shown]FWVLVVVGGVLACYSLLVTVAFIIFWVRSKRSRLLHSDYMNMTPRRPGPTRKHYQPYAPPRDFAAYRSKKVAKKPTNKAPHPKQEPQEINFPDDLPGSNTAAPVQETLHGCQPVTQEDGKESRISVQERQ |  |  |  | 1300
